# Paper PMC12136788
# The list shows a part of the results.
# T1: UNK ZnF1-3 (human, UniProt Q9C0B0 31-174)
# T1 sequence: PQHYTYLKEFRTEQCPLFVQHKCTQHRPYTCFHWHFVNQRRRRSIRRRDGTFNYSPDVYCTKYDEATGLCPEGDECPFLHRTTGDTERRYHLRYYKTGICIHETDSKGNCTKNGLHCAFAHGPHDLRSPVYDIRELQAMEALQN
# B1: chr19:16212804:16212805:+_ENSG00000167460_ENST00000300933|hu_mus|hu_hu_hu_mus_False|48_88 (ssRNA)
# RNA: GGGAGUUCUACAGUCCGACGAUCAACAAUUCUGGAGUGAAGGAAAGCAUCAAGGAUGAACAGCAUUAAAGCUCAGUCAGAAGGCACGUGGGUAAUUAUGAUCACCCCAGCAUUCUCGCUUGGAAUGCUUAAAGACAAUCUGUUCAACAGAGGAUUGAGCAUCA
# B2: chr19:29884105:29884106:-_ENSMUSG00000074909_ENSMUST00000099525|mus_mus|FALSE|FALSE (ssRNA)
# RNA: GGGAGUUCUACAGUCCGACGAUCCAGAGAGAAAUGGUAUAUCUCUCAUUUGUAAUGAAUCCACUCACGACACGUUGUAGCUACUUUUAUGAUAGAUGGUAUUAAACUGCUUCAAGCAAAACUGAGUAACUCAUGUAAAGCUUCCAACAGAGGAUUGAGCAUCA
# B3: chr3:176740097:176740098:-_ENSG00000177565_ENST00000430069|hu_mus|hu_hu_hu_mus_True|48_78 (ssRNA)
# RNA: GGGAGUUCUACAGUCCGACGAUCUGUUUUGUAUACCACAAAAGGAGGCACUUUCAGUAUCUGUAAAAGGUGUUUAGUCCUAAAACAUACUUACCUAGAGGAUAACUCAGGAAAACAAUCUGUUACACUCUAAGACCUACUCCACAACAGAGGAUUGAGCAUCA
# B4: chr8:81863377:81863378:-_ENSMUSG00000031681_ENSMUST00000066091|mus_mus|FALSE|FALSE (ssRNA)
# RNA: GGGAGUUCUACAGUCCGACGAUCAGCAUUUUAGUUGAUUUUUACAACAGAAUGUCACAAUGUAAACUGAAAGGGUUCUUGCUAUCAACCAAGGCUUGUCAGUUUCUCAAUCCAAUAGUUGGUCACAGAGGUCAAGUAUUAUCGCAACAGAGGAUUGAGCAUCA
# B5: chr9:128199989:128199990:-_ENSG00000119487_ENST00000373498|hu_hu|FALSE|FALSE (ssRNA)
# RNA: GGGAGUUCUACAGUCCGACGAUCUUUAAGAUGCUGUUUUAGACACAUCUCUUCCUGUACAACAAUUUAAAAAAUGUUUCUAAUGCAGGUCCUCAGUGAAACACCGGUCCCCGGCCCUGGCUGGGGACAGUAAGGACAUCACCGCAACAGAGGAUUGAGCAUCA
# B6: chr1:46073211:46073212:+_ENSG00000132780_ENST00000537798|hu_hu|FALSE|FALSE (ssRNA)
# RNA: GGGAGUUCUACAGUCCGACGAUCAGUGACCUCAGCUUCAUUCGGUCCUUCUGGUGCUGCUCCUCCUUUUGCCUCUUCAGAGGUUUCAGUUAACCAAUCUAGAGUCAAGUCAACUUUUUCCUGUGGCUCCUCUGCAGAUUUACUCAACAGAGGAUUGAGCAUCA
# B7: 56049922_56051489_482_CDS_ENSG00000146729_ENST00000322090|human|control|control (ssRNA)
# RNA: GGGAGUUCUACAGUCCGACGAUCCUCCAACAGGAGCUGAUUCUUCCUGGAGAGAAGCAUGUCACUUCUUGCCUUACGAAAUUCCAAAAAUUCCUUAUUUUCUCUGAGUUUAUUCAUGACUUCUGUGAGGGCUGGAUAGCCUCCCAACAGAGGAUUGAGCAUCA
# B8: 48629498_48633178_713_3pUTR_ENSMUSG00000031568_ENSMUST00000033973|mouse|control|control (ssRNA)
# RNA: GGGAGUUCUACAGUCCGACGAUCCCCAGUUCCAGCCGCGAGGCAGCUCCCCUUUGUGAUCUGUUUUAUCUGCCAGCUUGCGUUUCUGAGCUUUGGAAAGUUGUUCUUUCUUCUCUUUUUUCUUACUUGAUGGGGCUGUGGUGGCAACAGAGGAUUGAGCAUCA
# B9: chr3:176767854:176767855:-_ENSG00000177565_ENST00000430069|hu_hu|hu_hu_hu_mus_False|8_68 (ssRNA)
# RNA: GGGAGUUCUACAGUCCGACGAUCGACAUCCUUGUUACUGGGCACGUCCUGCCCUCCUUCCCGUAUGCAAUGUCUAAGCACGAGCUGCGUAGGGCCACUCGUGCUGUUCUCACUGAGGUUCCAGAUUCUUGCUGUUGAGUCUCCCAACAGAGGAUUGAGCAUCA
# B10: 4766894_4768318_1029_3pUTR_ENSG00000101265_ENST00000379400|human|control|control (ssRNA)
# RNA: GGGAGUUCUACAGUCCGACGAUCACUUCCCGAUCUUCUUCCUCCUGGAGCUUCUGAAUGAAGCUUUUAAGUACCGGCAUCUCGAACUUUAUAUACUGGGCCACGUCGUAGGUGACUUCCUCCACCUGGUCCUUCUCCAUUAGGCAACAGAGGAUUGAGCAUCA
# B11: chrX:71549400:71549401:+_ENSMUSG00000019087_ENSMUST00000019231|mus_hu|mus_mus_mus_hu_False|1_98 (ssRNA)
# RNA: GGGAGUUCUACAGUCCGACGAUCGCAGUAGGAAGAGCAAACCUUUCCAGUCCAGUGCGCUGCAGGGUGGGAAAGCAACAACACGGACACCGUCCCACCCUCAACCCCCCCACUGGCACAGGGUCACACAAUCUGGGAAGUGAUCAACAGAGGAUUGAGCAUCA
# B12: chr11:46405157:46405158:+_ENSG00000110492_ENST00000395566|hu_hu|hu_hu_hu_mus_False|1_58 (ssRNA)
# RNA: GGGAGUUCUACAGUCCGACGAUCCCCUCCCCACUUUGGGCACUUGGUGUGGGCGUGAGAGGACAGGCGUGAUUGACAAAGCUAACGGGAAGACAAAAGGCACUGGUGGGUUAUAUCUUGGGCCUGUGGGAGAGGAGGCGUGGGCAACAGAGGAUUGAGCAUCA
# B13: chr7:75932113:75932114:+_ENSG00000106211_ENST00000248553|hu_hu|hu_hu_hu_mus_False|8_78 (ssRNA)
# RNA: GGGAGUUCUACAGUCCGACGAUCCUGCGACCACUCAUCGGGCAACCGGGGCACCCCGAAGGCCUGGUCGAAGAGGCGGCUGUGUGCAGGGUACCAGUCCCGGAAUGGUUCCCAGCUCGGGCUCCGCAGCGAGAAGGAGGGCACCAACAGAGGAUUGAGCAUCA
# B14: chr9:14812383:14812384:-_ENSMUSG00000031934_ENSMUST00000164273|mus_mus|mus_mus_mus_hu_True|28_88 (ssRNA)
# RNA: GGGAGUUCUACAGUCCGACGAUCAUAGCCCAGGUAGAUACACGCUAACAGUAUAACGAUGAGUGUCAGCAGGCGGCAGCUAAUGUACUUGAUGAUUAAAUUAUUAGAGUUCUUUUUUGUCUUCAAGUACUGCUCCACAAUUGGCAACAGAGGAUUGAGCAUCA
# B15: chr11:4127340:4127341:+_ENSG00000167325_ENST00000300738|hu_mus|hu_hu_hu_mus_False|28_68 (ssRNA)
# RNA: GGGAGUUCUACAGUCCGACGAUCGGCAUAGUCAGGGUGCUUCGUGGUCAAGGUCGCGGCUGUCUCAGCAGCCAAAGUGUCCAGUUCCACUGUGGUGACCCCACUAUACAAGCCUUGGAUUACUUUCAUGGUGAUCUGAGCAGGCAACAGAGGAUUGAGCAUCA
# B16: chr12:39763582:39763583:-_ENSG00000139116_ENST00000544797|hu_mus|hu_hu_hu_mus_False|1_68 (ssRNA)
# RNA: GGGAGUUCUACAGUCCGACGAUCCUCUAGGAACUGGGCAUUCACUUUGAAUUCAGGAGGGGGCAGCCCAUUUUUAAUCGCUGAGGUCUUUUUCUCAUCAAUACUCUUGAACAGGUGUCUAACAGCACGAGAGAUGAUACCCAGCAACAGAGGAUUGAGCAUCA
# B17: 42222960_42223080_2227_3pUTR_ENSMUSG00000037287_ENSMUST00000125995|mouse|control|control (ssRNA)
# RNA: GGGAGUUCUACAGUCCGACGAUCUAUGCGAUAAAGCUGUCAGGAAGUACAUUCAUUGAACAUGAAGAAAAAACCCCUAGAACAGGACGAGUGCCAGGUGACGGGAGUGACAGCUGAUCUACCCUGGAGGGGCUCCUGGGGCGCCAACAGAGGAUUGAGCAUCA
# B18: chr17:64801638:64801639:+_ENSG00000154229_ENST00000413366|hu_mus|hu_hu_hu_mus_False|58_78 (ssRNA)
# RNA: GGGAGUUCUACAGUCCGACGAUCUAUAUAUAUAUAUACAUAUGUACACAUAUAUAGUAAGAGCCUAGUUAAACGUGUAAACUAGCCAUUCAUUUUUAAAAUUACAUCUACAUUAAAAAAUUAAUAUAUCUGAUAGAGUGCCAGCAACAGAGGAUUGAGCAUCA
# B19: 77256043_77256163_1379_CDS_ENSG00000127947_ENST00000248594|human|control|control (ssRNA)
# RNA: GGGAGUUCUACAGUCCGACGAUCUGGAUGGUAUCUAUCAUUGUCCUGCCACACAGUAGUGACUGUUGGAAAAGCUGAAGGGGGAGAAGGUGUCAAGAUGGGUGGCACUGGAUGAGGUUCCGGUGGCUGCAGUAUUUCUUCUUUCAACAGAGGAUUGAGCAUCA
# B20: chrX:153670519:153670520:+_ENSG00000203879_ENST00000447750|hu_hu|motif|central (ssRNA)
# RNA: GGGAGUUCUACAGUCCGACGAUCAGCCGGCUCCACCUCCUUUUCAGGGUCCGUGGUCUCCACAGUAGUGCUGGCAAUAGCGGUGUACUUGCCCUGGGCCGCCACGUUGUGUGCAUAGGAGAUCAUGCACACGUAGAUGUCUGACAACAGAGGAUUGAGCAUCA
# B21: chr1:220276048:220276049:+_ENSG00000067704_ENST00000302637|hu_hu|hu_hu_hu_mus_True|48_98 (ssRNA)
# RNA: GGGAGUUCUACAGUCCGACGAUCGCAAAUUGCCUGGUUGGCUGGAAUUGUCCAAGGCUGGGUGGUCCAAACUAAAACGCUAACAGGAGAUGAACCAUCUGUAAGAGACUCCAACUUCGGAGGAGGUCUCAGGAGGGGGAAUCUCAACAGAGGAUUGAGCAUCA
# B22: chr12:16048344:16048345:+_ENSG00000023734_ENST00000419869|hu_hu|hu_hu_hu_mus_True|1_38 (ssRNA)
# RNA: GGGAGUUCUACAGUCCGACGAUCAGAUCGUCCAUAAGUAAUAACCAAAAUCUCUCCUUCAGGAAUAUACUCCAUGCUGCUAACAGACAUAUUAAAAUUUAGAGAUUUCACUUCUGUCAUUGUGGCAUGAUCCCAGAGUCGAACCAACAGAGGAUUGAGCAUCA
# Molecular target: T1, UNK ZnF1-3
# Assay: nsRBNS (natural sequence RNA bind-n-seq); RBNS binding buffer (assumed for nsRBNS): 25 mM Tris pH 7.5, 150 mM KCl, 3 mM MgCl2, 0.01% Triton X-100, 500 ug/ml BSA, 20 U/ml SUPERase-In, 4 C; UNK is unkempt and MSI1 is Musashi-1; names of the RNAs are library labels; protein concentration not given here; high values mean tight binding
row,Binder,binding signal [enrichment R]
1,B1,1.38
2,B2,0.805
3,B3,0.861
4,B4,1.58
5,B5,0.643
6,B6,0.657
7,B7,0.601
8,B8,0.473
9,B9,0.522
10,B10,0.76
11,B11,1.13
12,B12,2.96
13,B13,1.08
14,B14,1.48
15,B15,0.92
16,B16,1.43
17,B17,1.23
18,B18,1.76
19,B19,1.05
20,B20,1.14
21,B21,1.25
22,B22,1.26
